# The campaign covered roughly 340,000 compounds. About 120 (0.035%) were called active. Inconclusive results, whose numbers are uncertain, are shown with a selection of clear calls.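 How the source made its calls: active means mean replicate inhibition at least 50% and at least half of replicates individually reaching 50%; inconclusive means only one of the two criteria met; inactive means neither criterion met.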
# Assay: E. coli Tat export inhibitors, primary screen, MC4100, TorA-mCherry reporter, fluorescence, single point (AID 488895);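 further: exported cargo escapes ClpAP degradation while cytoplasmic cargo is degraded and loses fluorescence; 0% = median of neutral control wells and 100% = median of NaSCN control wells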
# Conditions: at 10 µM, active compounds read high
row,SMILES,inhibition
1,COc1cccc(NC(=O)CSc2nc3ccccc3c(=O)n2CCCC(=O)NCC2CCCO2)c1 (stereo unspecified),inconclusive: 34.4%
2,O=C(CN1CCN(c2ccccc2)CC1)N1N=CCC1c1ccccc1 (stereo unspecified),inconclusive: 40%
3,CC1(C)CC(=O)C/C(=N\NC(=O)CCc2ccc(S(=O)(=O)N3CCOCC3)cc2)C1,inconclusive: 28.7%
4,Cc1ccc2oc3c(c(=O)c2c1)C(c1cccs1)N(CCCN(C)C)C3=O (stereo unspecified),inconclusive: 29.2%
5,C(=N\n1cncn1)/c1ccc(N2CCOCC2)cc1,inconclusive: 28.6%
6,Cc1ccccc1-n1c(SCC(=O)N2CCOCC2)nc(O)c(Cc2ccccc2)c1=O,inconclusive: 31%
7,C[C@H]1c2cccc(O)c2C(O)=C2C(=O)C3(O)C(O)=C(C(N)=O)C(=O)[C@@H](N(C)C)[C@@H]3[C@@H](O)[C@@H]21 (stereo partly specified),active: 152%
8,C[C@H]1CN([C@@H](C)CO)C(=O)c2cccc(NS(=O)(=O)c3ccc(F)cc3)c2O[C@H]1CN(C)Cc1ccc(Cl)c(Cl)c1,inconclusive: 33%
9,CC(C)(C)Nc1ncnc2sc(-c3ccccc3)cc12,inactive: -3.84%
10,Cc1cccc(NC(=S)N/N=C/c2c[nH]c3ccccc23)c1,inconclusive: 29.4%
11,CC1CCCCN1S(=O)(=O)c1ccc(NC(=O)c2ccco2)cc1 (stereo unspecified),inconclusive: 27.4%
12,NS(=O)(=O)c1ccc(NC(=O)CSc2nnc(-c3ccc(O)cc3)o2)cc1,inconclusive: 26.9%
13,Cc1n[nH]c(=O)nc1N1CCc2ccccc2C1,inconclusive: 29.6%
14,C/C(=N\O)c1cc(Cl)cc(Cl)c1O,inactive: 1.82%
15,COc1cccc(/C=C2/CCC(CN(C)C)C2=O)c1 (stereo unspecified),inactive: 2.48%
16,CC(=O)c1c(C)[nH]c(C(=O)CSc2nnc3ccccn23)c1C,inconclusive: 25%
17,O=C(Nc1cccc(Cl)c1)c1cc(N=Nc2ccc([N+](=O)[O-])cc2Cl)ccc1O,inactive: -2.91%
18,O=C(NCCc1ccccc1)c1ccc2c(c1)OCCCO2,inconclusive: 36.3%
19,C[C@@H]1C(c2ccc(F)cc2)=NN(c2ccccc2)[C@H]1C(=O)N1CCOC1=O,inconclusive: 43.2%

row,SMILES,inhibition
1,COc1cc2c(cc1NC(=O)COC(=O)[C@@H](NC(=O)c1ccccc1)C(C)C)oc1ccccc12,inconclusive: 26.2%
2,CCOC(=O)CNC(=O)c1ccccc1,inconclusive: 31.4%
3,CCOCCCNS(=O)(=O)c1ccc(Br)cc1,inconclusive: 31.9%
4,CC(=O)Oc1ccc(C(=O)Cc2ccccn2)c(O)c1,active: 56%
5,CS(=O)(=O)c1ccc(Cl)c(NC(=O)COC(=O)CCc2c[nH]c3ccccc23)c1,inconclusive: 25.4%
6,COc1ccc(-c2csc(N=C(N)N)n2)cc1,inactive: 12.4%
7,COCCCN=C(c1ccco1)n1c(=S)nc(-c2ccco2)n(CCCOC)c1=S,inconclusive: 30.8%
8,CC(=O)NC(Cc1ccc(F)c(F)c1)C(=O)NC1CCN(c2c(Cc3ccccc3)c(C)nc3ncnn23)CC1 (stereo unspecified),inconclusive: 34.1%
9,CCOC(=O)c1c(NC(NC(C)=O)C(Cl)(Cl)Cl)sc(C(C)=O)c1C (stereo unspecified),inconclusive: 29.7%
10,O=C(NCc1ccco1)c1ccc(Cn2cc([N+](=O)[O-])cn2)o1,inactive: -10.7%
11,CCOc1ccc(-c2c(C(=O)N/N=C/c3c[nH]c4ccccc34)nnn2-c2nonc2N)cc1,inconclusive: 21.9%
12,Cc1nn(-c2ccccc2)c2nc3c(cc12)C(=O)CCC3,inconclusive: 25.7%
13,CC1CCCN(C(=O)C2CCC(CNc3c(N4CCCCC4)c(=O)c3=O)CC2)C1 (stereo unspecified),inactive: -4.19%
14,O=C(O)c1sccc1OCc1ccccc1,inconclusive: 32.3%
15,Cc1cccc(NC(=O)c2cc(S(=O)(=O)N3CCC4(CC3)OCCO4)ccc2F)c1,inconclusive: 33.2%
16,CCC(C(=O)NC1C(=O)N2C(C(=O)O)=C(CSc3nnc(C)s3)CSC12)c1ccccc1 (stereo unspecified),inactive: -2.55%
17,CC(C)OCC(O)CN1CCN(CC(O)COc2ccc3c(c2)OCO3)CC1 (stereo unspecified),inconclusive: 20.1%
18,N#Cc1cccc(Nc2c3c(nc4ccccc24)CCCC3)c1,inconclusive: 29.6%
19,O=C(CCc1nnc2ccc(NCc3ccco3)nn12)N1CCN(c2ccccc2)CC1,inconclusive: 32.9%

row,SMILES,inhibition
1,Cc1ccc(C)c(SCC(=O)Nc2cccc(S(=O)(=O)NC3=NCCCCC3)c2)c1,inconclusive: 36%
2,Cc1[nH]nc(C(F)(F)F)c1N=NN1CCOCC1,active: 82.9%
3,O=C(Nc1ccc(F)cc1)C1CC(=O)N(Cc2ccco2)C1 (stereo unspecified),inconclusive: 29.7%
4,CC(C)Cc1ccc(CN2CCCC(NC(=O)Cn3cnnn3)C2)cc1 (stereo unspecified),inconclusive: 38.2%
5,CN(Cc1cn[nH]c1-c1ccc(-c2ccccc2)cc1)CC1CCOCC1,inconclusive: 23.8%
6,COC(=O)c1ccc(NC(=O)N2CCC(O)(c3cccnc3)CC2)cc1,inconclusive: 36.8%
7,O=C(NN1C(=O)CSC1=S)C(=O)NN1C(=O)CSC1=S,inactive: -7.39%
8,C/C(CCc1ccc2c(c1)OCO2)=N\NC(=O)c1ccccc1,inactive: -6.78%
9,COc1ccc(-n2c(Cc3cccn3C)nnc2SCC(=O)NCc2ccc(F)cc2)cc1,inconclusive: 49.6%
10,COC(=O)c1ccc(OC(=O)c2nn(C)cc2Cl)c(OC)c1,inconclusive: 31.4%
11,CCOc1ncccc1C(=O)N(CC)CC(=O)Nc1ccc(NC(C)=O)cc1,inconclusive: 28.9%
12,Cc1ccc(NC(=O)Cn2nnc3ccccc3c2=O)cc1C,inactive: 0.94%
13,Cc1ccc(-n2nnnc2-c2cnc3cc4c(cc3c2C)OCO4)cc1,inconclusive: 38.8%
14,NCCCn1c(C(=O)c2cc(Cl)c(N)c(Cl)c2)c2ccc([N+](=O)[O-])cc2[n+]1[O-],inactive: 8.89%
15,CCC(=O)c1c[nH]c(C(=O)NCc2cccc(C(F)(F)F)c2)c1,inactive: -6.4%
16,COc1ccccc1N(CC(=O)NC1CCCC1)C(=O)c1csnn1,inconclusive: 31.4%
17,Cc1ccc(C(c2cc(Cl)c3cccnc3c2O)N2CCN(C)CC2)cc1 (stereo unspecified),inactive: -1.6%
18,COC(C(=O)Nc1ccnn1C1CCN(C(=O)c2ccc(C=O)cc2)CC1)c1ccccc1 (stereo unspecified),inconclusive: 25.9%

# — PubChem BioAssay AID488895 (Broad Institute, 2010)
